Test results: PubChem BioAssay AID1745853 (National Center for Advancing Translational Sciences (NCATS), 2022)
The other results are listed elsewhere or left out. Shown are side measurements of this screen, not its main read-out; they come without a call.

Key:
Test in all cases: Primary Screen for Target Class Profiling of Small Molecule Inhibitors of Methyltransferases
[1] = molecular target: Glycine N-methyltransferase (Homo sapiens) (UniProt Q14749); settings: purified enzyme, MTase-Glo SAH luminescence; measured here: GNMT inhibition; at 40 µM; stronger effect = lower value
Outline: (§1)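 Each enzyme was assayed with SAM and its substrate. SAH formation detected by MTase-Glo luminescence; single-point 40 uM screen[…].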

[2] = molecular target: Guanidinoacetate N-methyltransferase (Homo sapiens) (UniProt Q14353); settings: purified enzyme, MTase-Glo SAH luminescence; measured here: GAMT inhibition; at 40 µM; stronger effect = lower value
Outline: as §1

[3] = molecular target: Histamine N-methyltransferase (Homo sapiens) (UniProt P50135); settings: purified enzyme, MTase-Glo SAH luminescence; measured here: HNMT inhibition; at 40 µM; stronger effect = lower value
Outline: as §1

[4] = molecular target: Nicotinamide N-methyltransferase (Homo sapiens) (UniProt P40261); settings: purified enzyme, MTase-Glo SAH luminescence; measured here: NNMT inhibition; at 40 µM; stronger effect = lower value
Outline: as §1

[5] = molecular target: Phenylethanolamine N-methyltransferase (Homo sapiens) (UniProt P11086); settings: purified enzyme, MTase-Glo SAH luminescence; measured here: PNMT inhibition; at 40 µM; stronger effect = lower value
Outline: as §1
% is scaled to controls: 0 for no effect and ±100 for the full control effect.

Row | Structure (SMILES) | activity change, negative = inhibition [1] [%] | activity change, negative = inhibition [2] [%] | activity change, negative = inhibition [3] [%] | activity change, negative = inhibition [4] [%] | activity change, negative = inhibition [5] [%]
1 | COc1ccc2cc3n(c2c1)CC(C)(C(=O)NCC1CCCO1)N(Cc1ccccc1OC)C3=O (stereo not given) | -1.5 | 5.11 | 0.126 | 4.54 | -0.803
2 | C=CCn1c(=O)c2ccc(C(=O)NC(C)CC)cc2n2c(=O)n(CC(=O)N(C)c3ccccc3)nc12 (stereo not given) | 2.53 | 0 | 5.51 | -2.1 | 2.96
3 | Cc1ccc2c(c1)-c1nc(-c3ccc(Cl)cc3)cc(-c3coc4ccccc4c3=O)c1CO2 | – | -0.154 | – | -14.7 | -10.8
4 | COC(C(=O)N1Cc2[nH]nc(NC(=O)c3ccc(N4CCN(C)CC4)cc3)c2C1)c1ccccc1 (stereo not given) | 1.37 | – | -33.5 | – | –
5 | COC(=O)c1nc(NC(=O)CC[C@H]2NC(=O)c3ccccc3NC2=O)sc1C | -9.5 | -2.58 | 0.246 | -9.91 | -0.423
6 | CCc1ccc(CNC(=O)c2ncn3c2C(=O)N(C2CC2)C(C)(C(=O)NCc2ccc(OC)cc2)C3)cc1 (stereo not given) | -7.2 | 3.37 | -5.99 | -9.64 | -4.81
7 | COC(=O)[C@H](NC(=O)[C@@H]1C[C@@H](NC(=O)CSC)CCN1S(=O)(=O)c1ccc(OC)cc1)C(C)C | -1.93 | -8.42 | -3.81 | -15.5 | -10.2
8 | CC(C)CCNS(=O)(=O)c1ccc2[nH]c(=O)[nH]c2c1 | 15.4 | 0.663 | 14.4 | 3.66 | 1.91
9 | C=CCn1c(=O)c2ccc(C(=O)NCC(C)C)cc2n2c(=O)[nH]nc12 | 2.97 | 0.587 | 5.91 | 8.74 | -0.919
10 | Cc1ccc(CNC(=O)C2(C)Cn3nc(C(=O)NCCc4cccc(C)c4)cc3C(=O)N2C)cc1 (stereo not given) | 2.03 | 0 | 3.54 | 3.77 | 0.78
11 | CCCCN1C(=O)c2ccc(-c3ccccc3)n2CC1(C)C(=O)NC1CCCCCC1 (stereo not given) | 0.956 | 2.58 | -2.76 | -3.96 | -4.21
12 | CCn1c2c(c(=O)n1Cc1ccccc1)CCN(C(=O)c1ccc(Oc3ccccc3)cc1)C2 | -8.25 | 0.386 | -3.85 | -12.3 | -2.92
13 | CC[C@@H](O)C[C@@H]1C(C)=C[C@@H]2CCCC[C@@H]2[C@@]1(C)C(=O)O | 1.46 | 2.36 | 7.96 | -13.8 | -6.81
14 | O=C(Nc1cccc(C(F)(F)F)c1)[C@@H]1CCCN1c1ccnc2ccnn12 | -7.42 | -5.78 | -6.78 | -11.2 | -0.035
15 | CCNC(=O)c1coc(COc2ccc3c(c2)C(c2cccc(C)c2)N(C(=O)C2CC2)CC3)n1 (stereo not given) | -4.86 | -1.47 | -7.64 | -13.5 | -10.8
16 | O=C(Cc1cccc(Cl)c1)N1CC(c2nc(Cc3ccccc3)no2)C1 | -2.64 | -0.458 | 0.324 | 2.75 | 0.045
17 | CCC(=O)N1CCCC(c2nc(-c3cccnn3)no2)C1 (stereo not given) | -4.35 | -11.5 | -5.24 | -13.2 | -6.8
18 | CC1(C(=O)NC2CCCC2)Cn2c(cc3sccc32)C(=O)N1Cc1ccccc1 (stereo not given) | -3.27 | 3.94 | -3.14 | -11 | -1.55
19 | Cc1ccc(CN2CC(Oc3ccccc3C(=O)NCc3ccccc3)C2)o1 | -6.48 | -5.7 | -4.64 | -15.3 | -4.4
20 | CCN1C(=O)c2cc(C(=O)NCc3ccc(SC)cc3)nn2CC1(C)C(=O)NC1CCCC1 (stereo not given) | 1.68 | 2.43 | 0.834 | 0.534 | -0.809
21 | CC(=O)Nc1c2n(c3ccc(F)cc13)CC(C)(C(=O)NC1CCCC1)N(c1cccc(C)c1C)C2=O (stereo not given) | 5.81 | 0.994 | 2.09 | 12.1 | 0.933

Row | Structure (SMILES) | activity change, negative = inhibition [1] [%] | activity change, negative = inhibition [2] [%] | activity change, negative = inhibition [3] [%] | activity change, negative = inhibition [4] [%] | activity change, negative = inhibition [5] [%]
22 | Clc1ccccc1C1(c2ccnc(NCCc3ccncc3)n2)CCNCC1 | -8.64 | -11.6 | -35.1 | -30.2 | -16.3
23 | CC(C)(C)CC(=O)N1C[C@@H](CO)[C@@H]2Oc3ccc(Cl)cc3[C@@H]21 | -8.66 | -11.4 | -3.26 | -28 | -31.3
24 | O=C(c1cccs1)C1CCCN(Cc2nc(CCc3ccccc3)no2)C1 (stereo not given) | -2.54 | 1.37 | 1.88 | -1.65 | -0.739
25 | Cn1ccc2c(C(=O)NCCc3cnc[nH]3)nc(-c3ccc(N4CCOCC4)cc3)cc21 | -29.4 | -22.6 | -58.4 | -23.6 | -26.6
26 | COC(=O)c1cc2n(n1)CC(C)(C(=O)NC1CCCCC1)N(Cc1cccc(OC)c1)C2=O (stereo not given) | 8.64 | 2.58 | 13 | 1.21 | 6.03
27 | CCc1nc(-c2c3n(c(=O)n(CCOc4ccc(F)cc4)c2=O)CCCC3)no1 | 2.16 | -4.84 | -1.49 | -5.45 | 2.12
28 | O=C(c1ccc(CCC2COc3ccccc3O2)cc1)N1CCCCC1 (stereo not given) | -7.44 | -6.96 | -8.77 | -10.1 | -11.2
29 | CCCCOc1ccccc1-c1cc2n(n1)CC(C)(C(=O)NC1CCCCC1)N(CCCOC)C2=O (stereo not given) | -1.25 | 0.156 | 2.67 | 1.76 | -1.24
30 | O=C(NC1CC1)c1ccc2nnc(C3CCCC3)n2c1 | -9.56 | -14.8 | -6.48 | -20.5 | -14
31 | CC1(C)CCC(NC(=O)[C@@H](N)CCC(=O)O)CC1 | 3.49 | 11.2 | 6.14 | -2.68 | 7.45
32 | CCN1C(=O)c2c(C(=O)NCc3ccc(Cl)cc3)ncn2CC1(C)C(=O)NC1CCCC1 (stereo not given) | -7.65 | -3.18 | 6.24 | -8.41 | 0.884
33 | COc1cc(-n2cnc3cc(-c4ccc(Cl)cc4)sc3c2=O)ccc1OCCN1CCCC1 | -4.08 | 15.7 | -3.8 | -10.2 | 3.99
34 | Cc1ccc(NC(=O)N2CCn3cccc3C2C)cc1 (stereo not given) | 3.97 | 0 | 3.72 | -3.76 | 1.93
35 | O=C(O)C1CCNCC1 | -1.72 | 5 | -0.582 | -5.66 | 5.28
36 | CCCCN(C)CCCN1C(=O)c2cc3occc3n2CC1(C)C(=O)NC1CCCCCC1 (stereo not given) | 2.78 | 3.77 | -12.5 | 2.81 | -0.849
37 | CCC(C)/C=C(C)/C=C/C1=CC2=CC(=O)C3(C)OC(C)(O)C(C(=O)OC)C3C2=CO1 (stereo not given) | 4.06 | 4.89 | 7.54 | -9.91 | -0.686
38 | CCOc1ccc(CN2C(=O)c3cc(-c4ccco4)nn3CC2(C)C(=O)NC2CCCCCC2)cc1 (stereo not given) | -4.22 | 2.84 | -3.82 | -5.32 | -10.1
39 | CC(Oc1cc(O)c2c(=O)cc(-c3ccccc3)oc2c1)C(=O)c1ccccc1 (stereo not given) | -6.13 | 2.17 | -4.93 | -7.02 | -11.4
40 | CN(C)CC1(O)CCC2(CCN(C(=O)CCC3CCCC3)CC2)CC1 | -7.86 | -7.52 | -20.6 | -13.4 | -7.77
41 | CCCN1C(=O)c2cc(C(=O)NCCCN3CCN(C)CC3)nn2CC1(C)C(=O)NC1CCCC1 (stereo not given) | -2.75 | -2.54 | -2.21 | -5.23 | -4.91
42 | Cc1cc2c(cc1S(=O)(=O)N1CCN(c3ccc(F)cc3)CC1)n(C)c(=O)n2C | -3.52 | 2.27 | -3.39 | -6.84 | -7.62

Row | Structure (SMILES) | activity change, negative = inhibition [1] [%] | activity change, negative = inhibition [2] [%] | activity change, negative = inhibition [3] [%] | activity change, negative = inhibition [4] [%] | activity change, negative = inhibition [5] [%]
43 | CC(C)OCCCNC(=O)C1c2c(n(C)c3ccccc23)SCC(=O)N1Cc1ccc2c(c1)OCO2 (stereo not given) | 3.77 | 4.03 | -6.33 | -6.37 | -2.2
44 | COc1ccccc1CN1C(=O)c2cc3occc3n2CC1(C)C(=O)NC1CCCCC1C (stereo not given) | -0.743 | 0.174 | 2.33 | 0.324 | -0.655
45 | CC(C)(C)c1ccc(C(=O)NC(Cc2c[nH]c3ccccc23)C(=O)OCC(=O)c2ccc(Br)cc2)cc1 (stereo not given) | -0.323 | 3.68 | -4.32 | -3.56 | -5.24
46 | O=C(O)c1cc(O[C@@H]2O[C@H](CO)[C@@H](O)[C@H](O)[C@H]2O)ccc1O | 4.17 | 7.79 | 10.2 | -3.12 | 6.93
47 | Cc1ccc(C(=O)N2C[C@@H](Oc3cccnc3)C[C@H]2C(N)=O)s1 | -3.43 | -3.27 | -1.6 | -6.48 | -3.19
48 | Cc1nc(C2CCCN(C(=O)C(C)(C)N)C2)cc(N2CCOCC2)n1 (stereo not given) | -4.04 | -3.01 | -27 | -6.73 | -9.57
49 | COc1ccccc1CN1C(=O)c2c(-n3cccc3)c3ccccc3n2CC1(C)C(=O)NC1CCCC1 (stereo not given) | 3.57 | 0 | -0.497 | 0.234 | 0.332
50 | CC1(C(=O)NC2CCCCC2)Cn2c(ccc2-c2ccco2)C(=O)N1CCc1ccccc1 (stereo not given) | -4.13 | -0.276 | 4.31 | -0.177 | -0.916
51 | COc1ccc(C(=O)N2CC[C@H]3NC(=O)N(c4ccc(Oc5ccccc5)cc4)C(=O)[C@H]32)cc1 | 5.32 | 1.87 | -0.064 | 3.81 | -18.2
52 | CSc1ccc(CCNC(=O)c2cc3n(n2)CC(C)(C(=O)NC2CCCCC2)N(C)C3=O)cc1 (stereo not given) | -0.848 | -4.04 | 4.09 | -4.29 | -5.17
53 | Cc1ccc(C(=O)Cn2nc3n(CC(C)C)c(=O)c4ccccc4n3c2=O)cc1 | 0.793 | 0 | 5.25 | 2.07 | 3.72
54 | O=C(/C=C/c1ccc(O)cc1)O[C@H]1[C@H](OC2CCCCC2O)O[C@H](CO)[C@@H](O)[C@@H]1O (stereo not given in full) | 0 | 0.055 | 2.02 | -11.6 | 3.75
55 | CC(=O)NCCc1ncc(C)n1C1CCC1 | 0.526 | -1.35 | -46.2 | -4.94 | -0.349
56 | COc1ccc(CCC(=O)N2CCCCCC2CN2CCC(OC)CC2)cc1 (stereo not given) | -5.6 | -6.33 | -5.11 | -9.94 | -6.39
57 | O=C1CN(Cc2cccc(F)c2)S(=O)(=O)c2ccccc2N1Cc1ccc(Cl)cc1 | 16.6 | 2.88 | 9.83 | 7.69 | 8.81
58 | COc1ccc(-c2cc(C(=O)N3CCOC(c4ccc(F)cc4)C3)[nH]n2)cc1 (stereo not given) | -15 | -0.083 | -1.94 | -1.74 | 1.25
59 | Cc1ccc(Cl)cc1N1C(=O)c2cc3sccc3n2CC1(C)C(=O)NC1CCCCC1 (stereo not given) | -3.46 | 1.7 | -1.39 | 5.29 | -5.76
60 | O=C1OC(c2ccc(O)cc2)C(O)=C1Cc1ccccc1 (stereo not given) | -4.61 | 2.78 | 5.57 | -11.9 | 1.48
61 | COc1ccccc1C1NC(C(=O)O)Cc2c1[nH]c1ccccc21 (stereo not given) | -2.81 | 4.64 | -4.77 | -3.6 | -0.182
